Measurements reported in the GPR68 mutational scans of Howard et al. (2025).
Scores whose standard error is large were omitted. The source holds two more conditions with little spread; they are left out. In variant names, del marks residues removed and ins residues inserted between the two positions. For some assays here: The data file names ogerin without a concentration.

B1: GPR68, Q15743 (parent)
chain: MGNITADNSSMSCTIDHTIHQTLAPVVYVTVLVVGFPANCLSLYFGYLQIKARNELGVYLCNLTVADLFYICSLPFWLQYVLQHDNWSHGDLSCQVCGILLYENIYISVGFLCCISVDRYLAVAHPFRFHQFRTLKAAVGVSVVIWAKELLTSIYFLMHEEVIEDENQHRVCFEHYPIQAWQRAINYYRFLVGFLFPICLLLASYQGILRAVRRSHGTQKSRKDQIQRLVLSTVVIFLACFLPYHVLLLVRSVWEASCDFAKGVFNAYHFSLLLTSFNCVADPVLYCFVSETTHRDLARLRGACLAFLTCSRTGRAREAYPLGAPEASGKSGAQGEEPELLTKLHPAFQTPNSPGSGGFPTGRLA

How the values were obtained:
[1] = variants of: B1; assay: cAMP reporter score (Enrich2 score, wild type = 0); higher = more signal; HEK293T, FACS bins
[2] = variants of: B1; assay: surface expression score (Enrich2 score, wild type = 0); higher = more signal; HEK293T, FACS bins

Variant	cAMP reporter score ([1]; pH 6)	cAMP reporter score ([1]; pH 6, modulator: ogerin)	cAMP reporter score ([1]; pH 6.5, modulator: ogerin)	surface expression score [2]	cAMP reporter score ([1]; pH 5.5)
C94_Q95del	-1.52	-1.08	-1.02	-1.5	–
F359_P360del	0.045	1.12	0.639	0.319	0.611
S353_P354insGSG	0.155	0.881	1.09	0.508	0.853
S356_G358del	0.688	0.922	0.904	-0.142	-0.091
L364_A365insG	0.787	-0.479	0.405	0.632	0.549
N104_I105insGSG	-0.233	-0.667	-1.48	–	–
G357_G358insG	0.766	1.17	1.16	1.09	0.69
P37N	-1.59	–	-0.424	–	–
P354_G355insG	–	0.088	0.447	0.086	0.197
R363_L364insG	–	0.708	0.872	0.548	0.432
G358_F359insG	2.15	0.892	1.56	0.843	0.83
D118P	0.154	-1.55	–	–	–
D118V	-0.927	-4.2	–	–	–
Y47F	-0.236	0.269	-0.045	-0.17	–
G358_F359del	-0.036	0.082	0.149	0.026	0.112
G362_R363del	-0.027	0.198	0.305	-0.338	0.231
V29_T30insGSG	-1.44	–	–	-1.76	–
I71_S73del	-0.613	-1.69	-1.21	-1.95	–
S93M	5.64	0.255	–	4.33	–
S93D	-0.437	-1.85	-0.089	-3.08	–
V29del	-0.127	-0.202	-0.566	-2.34	–
V33_V34insGS	-0.637	-0.964	-2.06	-2.77	–
F111_L112insG	-1.99	-1.47	-1.94	–	–

Variant	cAMP reporter score ([1]; pH 6)	cAMP reporter score ([1]; pH 6, modulator: ogerin)	cAMP reporter score ([1]; pH 6.5, modulator: ogerin)	surface expression score [2]	cAMP reporter score ([1]; pH 5.5)
G362del	0.726	0.777	0.376	0.985	1
C97_G98insGS	-0.509	-3.19	-2	–	–
G355_G357del	-0.392	0.505	0.085	0.235	0.089
T350_P351del	-0.287	-0.021	0.023	-0.15	0.092
P360_T361insGSG	0.723	0.588	1.05	0.223	-0.029
P360_T361del	-0.241	0.656	0.922	0.313	0.916
T361_G362insGSG	1.32	1.26	0.953	0.605	0.85
A52G	-0.89	0.534	-0.332	-0.404	–
G355M	–	0.855	0.444	0.448	-0.151
G355E	-0.236	0.684	0.453	0.826	0.615
G355T	0.089	-0.853	0.173	-0.103	0.073
G355I	-0.276	0.085	-0.073	0.819	0.424
G355W	-0.598	0.292	-0.748	-0.292	0.246
G355F	0.485	1.37	0.646	0.273	0.889
G355D	0.744	0.262	1.06	1.76	0.594
G355Y	-0.543	-0.385	-0.942	-0.604	-0.262
G355R	0.998	0.041	0.459	-0.273	0.018
G355P	-0.153	0.476	0.255	1.75	0.5
G355S	–	-0.65	-0.065	-0.161	-0.555
G355V	-0.145	-0.66	-0.214	-0.334	-0.751
G355H	0.496	0.203	0.498	-0.036	0.262
G355Q	0.222	0.281	0.486	1.13	1.12
G355L	0.459	0.035	-0.204	0.114	0.082

Variant	cAMP reporter score ([1]; pH 6)	cAMP reporter score ([1]; pH 6, modulator: ogerin)	cAMP reporter score ([1]; pH 6.5, modulator: ogerin)	surface expression score [2]	cAMP reporter score ([1]; pH 5.5)
G355C	0.89	0.124	0.972	0.168	0.898
G355A	-0.835	0.923	0.827	0.613	0.991
G355K	0.563	1.01	1.62	0.968	1.32
L60del	-0.73	-2.69	–	-4	–
Y120A	-0.648	-0.707	–	-2.33	–
G57D	-1.17	-1.37	-1.32	-3.34	–
T30S	0.591	-0.821	-0.578	-0.246	–
T30N	0.151	–	-0.902	-1.98	–
C114_I115insGSG	-1.87	-0.707	-0.394	–	–
G358_F359insGS	–	0.724	1.05	1.6	0.767
I107G	-0.201	–	–	-1.72	–
I107A	-0.047	–	-0.458	–	–
P360_T361insGS	–	0.023	-0.961	0.004	0.01
Y102T	-0.888	-0.6	-1.18	2.21	–
Y102W	-1.94	-0.737	-2.01	-0.758	–
V33Q	-1.97	–	-2.06	-2.26	–
G357A	-0.218	0.59	1.06	1.07	0.234
G357H	1.77	1.42	0.68	0.924	1.09
G357R	–	-0.427	0.532	-0.307	0.17
G357I	0.423	0.924	0.326	0.595	0.857
G357S	0.215	0.284	-0.679	0.198	0.007
G357V	-0.286	-0.231	-0.506	-0.034	-0.147
G357F	0.876	0.868	1.09	0.084	0.601

Variant	cAMP reporter score ([1]; pH 6)	cAMP reporter score ([1]; pH 6, modulator: ogerin)	cAMP reporter score ([1]; pH 6.5, modulator: ogerin)	surface expression score [2]	cAMP reporter score ([1]; pH 5.5)
G357K	0.588	0.313	0.411	1.47	0.675
G357W	0.776	0.314	-0.217	0.123	0.441
G357N	-0.271	0.074	0.316	1.05	0.875
G357T	2.08	1.72	1.61	–	0.515
G357L	1.26	-0.085	-0.171	-0.421	-0.205
G357E	1.91	0.53	-0.853	-1.08	-0.631
G357Q	–	0.909	1.04	0.236	0.466
G357Y	-0.127	0.484	0.772	0.009	0.684
G357P	0.858	1.34	0.586	1.18	0.119
G357M	0.479	1.35	0.281	0.417	1.21
G357C	0.663	1.15	1.54	0.617	1.03
G357D	0.144	-0.482	-0.26	-0.006	-0.204
G357del	-0.275	0.339	0.277	0.556	0.513
Y70K	-1.68	–	-1.89	2.84	–
T361_R363del	0.844	-0.285	0.21	0.149	0.674
N62P	-1.07	-1.17	-1.06	–	–
S88N	-0.942	0.545	-0.463	–	–
S88I	1.92	0.879	2.22	-0.13	–
E103_N104insG	-0.762	–	–	-0.425	–
P360del	-0.553	–	-0.555	2.47	1.71
P351_N352insGSG	0.111	-0.154	0.518	0.7	-0.197
D7K	0.549	-1.08	-0.165	0.139	–
C94L	-1.53	-2.52	–	–	–

Variant	cAMP reporter score ([1]; pH 6)	cAMP reporter score ([1]; pH 6, modulator: ogerin)	cAMP reporter score ([1]; pH 6.5, modulator: ogerin)	surface expression score [2]	cAMP reporter score ([1]; pH 5.5)
C94D	-1.62	-0.677	-0.636	-2.58	–
P354_G355del	0.922	1.08	0.233	0.835	0.437
R363K	0.498	0.459	0.697	0.379	0.352
R363L	-0.058	0.304	0.587	-0.082	-0.003
R363Q	0.418	0.556	0.744	1.38	1.22
R363A	-0.03	0.823	0.549	0.326	-0.071
R363N	-0.292	0.971	0.571	1.41	0.391
R363T	–	0.453	0.087	–	-0.146
R363Y	–	-0.055	-0.397	-0.151	-0.331
R363I	-0.091	0.226	0.37	-0.64	0.69
R363D	1.07	0.986	0.954	0.768	0.206
R363M	0.807	1.09	0.352	1.19	0.765
R363H	–	0.879	1.32	0.659	0.481
R363C	1.74	1.03	0.487	0.944	0.212
R363S	-0.389	-0.703	1.21	-1.51	-0.908
R363F	-0.018	0.708	0.023	0.715	0.651
R363V	0.552	1.28	0.765	1.79	0.979
R363G	0.608	1.36	1.9	1.87	0.984
R363P	–	0.713	–	–	0.97
R363W	-0.204	0.017	-0.243	-0.115	0.092
R363E	–	0.84	1.73	1	1.06
V109H	-3.19	-3.27	-0.792	–	–
C97M	-0.639	0.194	-0.661	3.48	–

Variant	cAMP reporter score ([1]; pH 6)	cAMP reporter score ([1]; pH 6, modulator: ogerin)	cAMP reporter score ([1]; pH 6.5, modulator: ogerin)	surface expression score [2]	cAMP reporter score ([1]; pH 5.5)
N352_S353del	-0.233	-0.321	-0.182	-0.797	0.084
G362_R363insG	1.82	1.7	1.46	0.934	0.885
T350K	1.15	2.62	0.215	1.07	0.698
T350N	-0.043	-0.332	0.669	-0.189	-0.475
T350M	0.063	1.06	0.373	0.439	0.831
T350W	-0.095	0.387	-0.468	-0.39	-0.437
T350R	-0.18	0.359	0.657	0.514	0.211
T350Q	0.528	0.718	0.512	0.688	0.539
T350V	-0.688	0.349	0.118	-0.039	0.161
T350Y	-0.912	0.086	-0.687	-0.597	-0.222
T350L	0.177	-0.772	-0.368	-1.45	0.217
T350S	0.063	0.143	0.291	0.537	0.226
T350P	0.35	1.22	0.942	1.31	2.23
T350I	-1.28	0.084	1.49	-0.21	0.151
Q79P	-2	-1.7	-1.24	0.666	–
G362_L364del	0.266	0.699	0.222	0.35	1.07
P354del	–	–	–	0.662	0.515
L364del	–	0.631	0.749	0.507	0.718
N352_S353insGSG	0.33	0.516	0.907	0.371	0.272
L112_C114del	1.17	–	–	-1.17	–
